Data published in PubChem BioAssay AID504832 (National Center for Advancing Translational Sciences (NCATS), 2011).
About 18,000 (5.8%) of roughly 310,000 compounds were called active. The inconclusive results got no clear call from the source; some entries with a clear call stand among them for comparison. Calls follow the shape of the dose curve; as a rule, active = well fitted inhibition curve with a large enough effect; inconclusive = small, poorly fitted or top-dose-only effect, or another doubt; inactive = no such curve, though single readings can be large or run the other way. No potency is given beside an inconclusive call; the fits are too rough.
% is scaled to controls: 0 for no effect and ±100 for the full control effect; potency is read from the fitted curve at half-maximal effect; tags tell the direction and shape of the fitted curve.

Assay: Primary qHTS for delayed death inhibitors of the malarial parasite plastid, 48 hour incubation
Conditions: P. falciparum luciferase growth in erythrocytes; series mostly up to 28.7 µM; activity change, negative = inhibition: at the top concentration
Procedure, shortened: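 Parasite viability was followed by luminescence of a genomically integrated firefly luciferase. Cultures held 0.1% parasitemia at 2% hematocrit (final), incubated under 5% CO2 at 37 C.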
In the case of `CCCC(=O)Nc1nc2ccc(OCC)cc2s1`, the “activity change, negative = inhibition” value is reported as inactive: -0.16%. For `Cc1cc(C)cc(NC(=S)NC2CC3CCCC(C2)N3C2CC2)c1` (centres undefined), the Potency was inconclusive [inhibitor, partial curve]. In the case of `CC1CCN(CC(=O)c2cccs2)CC1`, the “activity change, negative = inhibition” value is reported as inactive: 38.8%. With `COc1cc([N+](=O)[O-])ccc1NC(=O)NNC(=O)CCc1ccccc1` the “activity change, negative = inhibition” value was inactive: 37.3%. In the case of `C=CCN(CC=C)C(=S)NCCc1ccc(OC)c(OC)c1`, the Potency is reported as active: 13.1 µM. In the case of `Oc1c(Br)cc(Br)cc1CNc1ccc(F)cc1`, the Potency is reported as inconclusive [inhibitor, single point]. With `O=C1CSC(c2ccc(Cl)cc2)N1Nc1nc(N2CCOCC2)nc(N2CCOCC2)n1` (centres undefined) the Potency was inconclusive [inhibitor, single point]. In the case of `CCOC(=O)c1c(C)n(C)c2ccc(OCC(O)Cn3nc(C)cc3C)cc12` (centres undefined), the Potency is reported as inconclusive [inhibitor, single point]. With `COc1ccc(OCc2nnc(SCC(=O)N3c4ccccc4Sc4ccc(Cl)cc43)o2)cc1` the Potency was inconclusive [inhibitor, single point]. With `CC1Cc2nc(SCC(=O)N3CCN(c4ccccc4)CC3)n(CCc3ccccc3)c(=O)c2S1` (centres undefined) the Potency was active: 9.28 µM. For `CCc1ccc(-c2cc(C(F)(F)F)n3nc(C(=O)Nc4c(C)nn(Cc5ccc(F)cc5)c4C)cc3n2)s1`, the Potency was inconclusive [inhibitor, single point]. In the case of `CC(C)C(c1nnnn1C1CCCCC1)N1CCc2ccccc2C1` (centres undefined), the Potency is reported as active: 14.7 µM. For `Cc1ccc(-n2cc(S(=O)(=O)c3ccc(C)cc3)[nH]c2=O)cc1`, the Potency was inconclusive [inhibitor, single point]. With `Fc1ccc(CN2CCC(Cc3ccccc3)CC2)cc1F` the “activity change, negative = inhibition” value was inactive: 31.3%. For `O=C(NC12CC3CC(CC(C3)C1)C2)N1CCCC(CO)C1` (centres undefined), the Potency was inconclusive [inhibitor, partial curve]. With `CN1C(=O)CSc2ccc(NC(=O)NCc3ccccc3)cc21` the Potency was inconclusive [inhibitor, single point]. With `COC(=O)C1=C(C)NC(C)=C(C(=O)OC)C1/C=C/c1ccccc1` the Potency was inconclusive [inhibitor, partial curve]. In the case of `COc1ccc(-n2nc(C(=O)NCC(=O)NCCCN3CC(C)CC(C)C3)c3ccccc3c2=O)cc1Cl` (centres undefined), the Potency is reported as active: 6.57 µM. In the case of `COc1cccc(N2CCN(C(=O)CN(C)S(=O)(=O)c3ccc4c(c3)c(=O)n(C)c(=O)n4C)CC2)c1`, the Potency is reported as inconclusive [inhibitor, single point]. For `CC1CCN(C(=O)Cn2cnc3c2c(=O)n(C)c(=O)n3C)c2ccccc2S1` (centres undefined), the “activity change, negative = inhibition” value was inactive: 2.73%. For `CCc1ccc2c(c1)[C@]1(C(=O)N2)[C@@H]2C(=O)N(Cc3ccccc3)C(=O)[C@@H]2[C@@H]2CCCN21`, the Potency was inconclusive [inhibitor, single point]. With `CCC(C(=O)NCCc1ccccc1)c1ccccc1` (centres undefined) the “activity change, negative = inhibition” value was inactive: -39.7%. In the case of `Cc1cccc(-c2nnc3n2N=C(c2ccccc2Br)CS3)c1`, the Potency is reported as inconclusive [inhibitor, partial curve, poor fit]. For `COc1ccc(Oc2nccc(-c3ccc(F)cc3)c2C#N)cc1`, the “activity change, negative = inhibition” value was inactive: 33.4%. In the case of `COc1c(C)c2c(c(O)c1CC=C(C)CCC(=O)OCCN1CCOCC1)C(=O)OC2`, the Potency is reported as active: 9.53 µM. For `Cc1cc(=O)[nH]c(NN=C2CCC(C(C)(C)C)CC2)n1` (centres undefined), the Potency was inconclusive [inhibitor, single point]. With `CC1(C)Cc2c(C#N)c(N3CCOCC3)nc(Cc3ccccc3)c2CO1` the Potency was inconclusive [inhibitor, partial curve, poor fit]. In the case of `COc1cccc(NC(=O)CN(C)C(=O)/C=C/c2cn(Cc3ccccc3)nc2-c2cccnc2)c1`, the Potency is reported as inconclusive [inhibitor, partial curve, poor fit]. In the case of `Cc1cccc(NC(=O)CCCN=C2NS(=O)(=O)c3ccccc32)c1C`, the Potency is reported as inconclusive [inhibitor, partial curve, poor fit]. For `CCc1nccn1S(=O)(=O)c1ccc2ccc(C)cc2c1`, the “activity change, negative = inhibition” value was inactive: 3.44%. With `CCC(Sc1nc2cc3c(cc2c(=O)n1Cc1ccco1)OCO3)C(=O)Nc1cccc(OC)c1` (centres undefined) the Potency was inconclusive [inhibitor, partial curve]. For `CCOc1ccc(/C=N/Nc2nc(N3CCCC3)nc(N3CCCC3)n2)cc1OC`, the Potency was active: 10.4 µM. In the case of `Cc1c(C)c2ccc(OC(C)C(=O)NCCCn3ccnc3)c(C)c2oc1=O` (centres undefined), the Potency is reported as inconclusive [inhibitor, single point]. In the case of `Cc1ccc(SC(=O)COc2ccc(C)c(C)c2)cc1`, the Potency is reported as inconclusive [inhibitor, single point]. For `O=C1CSC(c2cccnc2)N1CC1CC1` (centres undefined), the Potency was inconclusive [inhibitor, full curve]. For `COn1c(SCc2ccc(C)cc2C)nc2ccccc2c1=O`, the Potency was inconclusive [inhibitor, partial curve, poor fit]. With `CC(=O)Nc1ccc(OCC(O)Cn2c3ccccc3c3ccccc32)cc1` (centres undefined) the Potency was inconclusive [inhibitor, partial curve, poor fit]. For `COc1ccc(OC)c(NC(=O)Cn2cc(C(=O)c3ccco3)c3ccccc32)c1`, the Potency was inconclusive [inhibitor, partial curve]. For `CC(=O)OC(C)[C@H]1CC[C@H]2[C@@H]3CC[C@H]4C[C@@H](OC(C)=O)CC[C@]4(C)C3=CC[C@]12C` (some centres undefined), the Potency was inconclusive [inhibitor, partial curve, poor fit]. For `Cc1ccc(S(=O)(=O)N2CCCCC2)cc1NC(=O)Cn1cc(C(F)(F)F)ccc1=O`, the “activity change, negative = inhibition” value was inactive: -28%. With `COc1cc2c(cc1OC)CN(C(=O)CN1C(=O)NC3(CCC(C)CC3)C1=O)CC2` (centres undefined) the Potency was inconclusive [inhibitor, single point]. With `Cc1sc(NC(=S)NC(=O)c2ccc(C(C)(C)C)cc2)c(C#N)c1C` the “activity change, negative = inhibition” value was inactive: 6.75%. For `C/C(=N\NC(=O)c1cccnc1)c1cc(C)oc1C`, the “activity change, negative = inhibition” value was inactive: 10.8%. With `O=C(Cc1ccc(F)cc1)Nc1nccs1` the Potency was inconclusive [inhibitor, partial curve, poor fit].
